# Experimental data taken from PubChem BioAssay AID686979 (National Center for Advancing Translational Sciences (NCATS), 2013).
# The whole screen tested about 420,000 compounds, of which about 50,000 (12%) were called active. Inconclusive results, whose numbers are uncertain, are shown with a selection of clear calls. The call rests on the fitted dose curve; in most records, active means well fitted inhibition curve with a large enough effect; inconclusive means small, poorly fitted or top-dose-only effect; inactive means flat fitted curve, though single readings scatter. Potencies of inconclusive entries are left out as doubtful fits.
# Test: qHTS for Inhibitors of human tyrosyl-DNA phosphodiesterase 1 (TDP1): qHTS in cells in presence of CPT; further: nearly all actives have a fitted effect of over 55% in size
# Conditions: chicken DT40 Tdp1-/-;hTDP1 cells + 20 nM CPT, ATP luminescence, 48 h; activity change, negative = growth inhibition: at 46.2 µM (top of the series) unless noted
# Summary of the method: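 Cell growth measured by CellTiter-Glo luminescence after a minimum 48 h, 37 C compound exposure with 20 nM CPT in Tdp1-knockout DT40 cells stably expressing hTDP1, seeded 400/well; qHTS titration format.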
# On the % scale 0 is the no-effect control and ±100 the full control effect; potency means the concentration at half of the fitted maximal effect; tags describe the fitted curve by direction and shape.
Compound,Potency,"activity change, negative = growth inhibition"
O=[N+]([O-])c1cccc(C2NCC(c3ccccc3Cl)c3c2[nH]c2ccccc32)c1 (centres undefined),"inconclusive [inhibitor, single point]",
Cc1cccc(CN(CC(=O)N/N=C/c2cccs2)S(=O)(=O)c2ccc(Cl)cc2)c1,"inconclusive [inhibitor, single point]",
CCOc1ccc(NC(=O)c2noc3c2CSc2ccccc2-3)cc1,inactive,
C=CCOC(=O)C1=C(C)NC(C)=C(C(=O)OCC=C)C1/C=C/c1ccccc1,"inconclusive [inhibitor, partial curve]",
O=C(COC(=O)c1ccc(O)cc1)c1ccc2c(c1)OCCO2,inactive,
O=C(CN(Cc1ccccc1)S(=O)(=O)c1ccc(S(=O)(=O)N2CCOCC2)cc1)Nc1ccccc1,inactive,
CC(C)(C)c1ccc(S(=O)(=O)N2CCN(C(=O)c3cc(-c4ccc(Br)cc4)n[nH]3)CC2)cc1,"inconclusive [inhibitor, single point]",
CCOc1cc(/C=C2/NC(=S)NC2=O)ccc1OCc1ccc([N+](=O)[O-])cc1,"inconclusive [inhibitor, partial curve]",
CCS(=O)(=O)c1ccc2oc(SCC(=O)NC34CC5CC(CC(C5)C3)C4)nc2c1,"inconclusive [inhibitor, single point]",
COc1cc(NC(=O)c2ccccc2)c(OC)cc1NC(=O)CN1CCOCC1,inactive,
CCN(Cc1cccc(S(=O)(=O)O)c1)c1ccc(C(=C2C=CC(=[N+](CC)Cc3cccc(S(=O)(=O)O)c3)C=C2)c2ccccc2S(=O)(=O)[O-])cc1,active: 2 µM,
COc1cccc(CNC(=O)c2nnc(Cc3ccc(Cl)cc3)o2)c1,inactive,
COc1ccc(S(=O)(=O)N(C)C[C@H]2Oc3ccc(NC(=O)NC4CCCCC4)cc3C(=O)N([C@H](C)CO)C[C@@H]2C)cc1,"inconclusive [inhibitor, single point]",
O=C(Nc1ccc2oc(-c3cc(Br)ccc3Cl)nc2c1)c1ccc2ccccc2c1,active: 16.4 µM,
COc1ccc(N2CCN(S(=O)(=O)c3ccc4c(c3)N(C(C)=O)CCO4)CC2)cc1,inactive,
Cc1cccc(C)c1NC(=O)CNC(=O)c1ccc2ccccc2n1,inactive,
NC1=NC(=Nc2cccc(S(=O)(=O)N3CCOCC3)c2)c2ccccc21,"inconclusive [inhibitor, single point]",
O=C(OCc1ccccc1)N1CCC2CC1c1ccc(Cl)cc12 (centres undefined),inactive,
COc1ccc(COC[B-](F)(F)F)cc1,inactive,
COC(=O)C1CCN(C(=O)/C=C/c2ccccc2)CC1,inactive,
COc1ccccc1N1CCN(c2ncnc3onc(C)c23)CC1,"inconclusive [inhibitor, single point]",
Cc1c(C(=O)N2CCN(c3ccc(F)cc3)CC2)sc2nc(-c3ccccc3)cn12,inactive,
O=C(CSCc1ccc(Br)cc1)Nc1ccccc1C(=O)N1CCOCC1,"inconclusive [inhibitor, partial curve, poor fit]",

Compound,Potency,"activity change, negative = growth inhibition"
O=C(CSc1ccc(-c2cccs2)nn1)Nc1cccc(F)c1,active: 14.6 µM,
Cc1ccccc1C(=O)c1cccn1CC(=O)NCCN1CCN(c2cccc(C)c2C)CC1,active: 16.4 µM,
CCN1CCN(CCCNC(=O)c2ccc3c(c2)sc2nc(-c4ccc(C)cc4)cn23)CC1,active: 1.3 µM,
N#Cc1ccc(OCc2nnc(-c3ccc([N+](=O)[O-])cc3)o2)cc1,,inconclusive: -32% [inhibitor]
CC(=O)Nc1ccc2c(CSc3nnc(N)s3)cc(=O)oc2c1,inactive,
O=C(N/N=C/c1cccc2ccccc12)c1cccs1,active: 25.9 µM,
CCOC(=O)Cn1c(=O)n(C2CCCCC2)c2nc(-c3cccc(C)c3)nc(C(N)=O)c21,,inconclusive: 1.75% [inhibitor]
COc1ccc(C(=O)/C=C/c2cc(OC)c(O)c(OC)c2)c(F)c1,"inconclusive [inhibitor, single point]",
COc1cccc(N2CCN(C(=O)Cn3ncc4c(=O)oc5ccccc5c43)CC2)c1,active: 16.4 µM,
O=S(=O)(c1ccc(NC(=S)NCc2ccc(F)cc2)cc1)N1CCOCC1,"inconclusive [inhibitor, single point]",
C#CCOCCOCCOCCNc1nc(N2CCN(C(=O)CCCCCCCCCCNC(=O)Cn3cc(C[C@@H](C)O)nn3)CC2)nc(N2CCN(C(=O)CCCCCCCCCCNC(=O)[C@H](CCCN=C(N)N)n3cc(C[C@@H](C)CC)nn3)CC2)n1,"inconclusive [inhibitor, single point]",
CN(C(=O)c1oc(=O)c2ccccc2c1-c1ccccc1)c1cccc(Cl)c1,active: 18.4 µM,
CCCCN(C(=O)Cc1ccc(S(=O)(=O)N2CCOCC2)s1)c1ccccc1,"inconclusive [inhibitor, single point]",
CCOP(=O)(OCC)c1nc(-c2ccc(Cl)cc2Cl)oc1N1CCOCC1,"inconclusive [inhibitor, single point]",
COc1ccc(CCNC(=O)C(=O)c2c(C)n(C)c3ccccc23)cc1OC,inactive,
COc1ccc(-n2c(SCC(=O)NCc3ccccc3)nc3n[nH]c(C)c3c2=N)cc1,active: 6.51 µM,
COc1ncc(-c2ccc(N3C(c4ccsc4)=Cc4ccccc4C3CC(C)=O)cc2)cn1 (centres undefined),"inconclusive [inhibitor, single point]",
Cc1nc(NC2CCCCC2)c2nnn(Cc3ccccc3Cl)c2n1,"inconclusive [inhibitor, single point]",
COc1ccc(NC(=O)N(C)C[C@H]2Oc3c(NC(=O)c4nc5ccccc5s4)cccc3C(=O)N([C@@H](C)CO)C[C@H]2C)cc1,"inconclusive [inhibitor, single point]",
COc1cccc(CN2CCc3nc(N4CCN(C)CC4)ncc3C2)c1,"inconclusive [inhibitor, single point]",
CCOC(=O)c1cnn(C)c1NC(=O)c1ccc(Cl)cc1Cl,inactive,
O=C(Cn1cnc([N+](=O)[O-])c1)c1ccc(F)cc1,"inconclusive [inhibitor, single point]",
Cc1nc2ccccc2c(=O)n1/N=C/c1ccccc1O,inactive,

Compound,Potency,"activity change, negative = growth inhibition"
CC(C)c1ccc(Nc2nc(Cl)nc(NCc3ccco3)n2)cc1,"inconclusive [inhibitor, single point]",
CN=C(Nc1ccc(Cl)cc1)c1cccc(C(F)(F)F)c1,"inconclusive [inhibitor, single point]",
N#Cc1c(N2CCCCC2)nc(N)c2c(N)nc(SCC(=O)O)cc12,"inconclusive [inhibitor, single point]",
CCOc1ccc(-c2ccc(/C=C3/C(=N)N4C=CSC4=NC3=O)o2)c([N+](=O)[O-])c1,active: 20.6 µM,
O=C(O)CCN1C(=O)/C(=C\c2ccc(-c3nc4ccccc4s3)o2)SC1=S,"inconclusive [inhibitor, single point]",
CC(OC(=O)c1nc(Cl)ccc1Cl)C(=O)Nc1ccccc1F (centres undefined),inactive,
CCOc1ccc(CCNC(=O)Cc2ccc(NC(=O)N3CCSc4ncccc43)cc2)cc1,"inconclusive [inhibitor, single point]",
CN(C)CCCN1C(=O)c2oc3ccccc3c(=O)c2C1c1cccs1 (centres undefined),"inconclusive [inhibitor, partial curve]",
COCCn1c(=NC(=O)c2cc(-c3cccs3)nc3ccccc23)sc2cc(S(N)(=O)=O)ccc21,"inconclusive [inhibitor, single point]",
CCn1cc(C(=O)NC2CCCCCC2)c2cc(OC)c(OC)cc2c1=O,"inconclusive [inhibitor, single point]",
O=C(Nc1ccccc1C(=O)O)c1cccc(C(=O)Nc2ccccc2C(=O)O)c1,"inconclusive [inhibitor, single point]",
O=C(Nc1ccc(Oc2ccccc2)cc1)c1ccc2sc([C@H]3C[C@H](O)[C@@H](CO)O3)nc2c1,"inconclusive [inhibitor, single point]",
CC(=O)Nc1ccc(S(=O)(=O)NC(C)CCc2ccccc2)cc1 (centres undefined),"inconclusive [inhibitor, single point]",
COC(=O)c1c(NC(=O)CCS(=O)(=O)c2ccccc2)sc2c1CCN(C)C2,active: 5.8 µM,
CCOC(=O)Nc1cc(NC(=O)OCC)c(C)nc1C,inactive,
Cc1oc2ncn(C)c(=O)c2c1C(=O)NCc1ccccc1,inactive,
NNC(=O)c1ccc(COc2ccc3ccccc3c2)o1,"inconclusive [inhibitor, single point]",
COc1ccc(-c2n[nH]c(C)c2-c2ccc(Cl)cc2)c(O)c1OC,"inconclusive [inhibitor, single point]",
O=C(c1ccc(F)cc1)C1CCN(C(=O)c2ccc(Cl)cc2)CC1,"inconclusive [inhibitor, full curve, poor fit]",
Cc1cc(Cl)cc(Cl)c1OCCCCN(C)C,"inconclusive [inhibitor, single point]",
COCCn1c(SCC(=O)Nc2ccc(OC)c(S(N)(=O)=O)c2)nc2ccccc2c1=O,inactive,
COc1cc(OC)cc(C(=O)Nc2nc(-c3nnn(-c4ccc(F)c(Cl)c4)c3C)ns2)c1,"inconclusive [inhibitor, single point]",
CS(=O)(=O)c1ccccc1C(=O)Nc1ccc(S(=O)(=O)N2CCCC2)cc1,"inconclusive [inhibitor, single point]",
